Assay results reported in a compilation of properties of binary mixtures (doi:10.1016/j.molliq.2022.120022).
The densities may have been worked out from excess volumes.

Assay: xn = mol fraction of the nth substance listed
Conditions: 100 kPa

O + C[N+](C)(C)CCO.NCC(=O)[O-]
Conditions | mass density [kg/m3]
323.15 K, x2 = 0 | 987.8

C[N+](C)(C)CCO.NCC(=O)[O-] + O
mass density [kg/m3]
Conditions | x1 = 0.1 | x1 = 0.2004 | x1 = 0.3 | x1 = 0.3996 | x1 = 0.5004 | x1 = 0.6004 | x1 = 0.6966 | x1 = 0.8014 | x1 = 0.8996 | x1 = 1
298.15 K | 1081.8 | 1113.7 | 1128.1 | 1135.5 | 1139.8 | 1142.3 | 1143.8 | 1144.9 | 1145.7 | –
303.15 K | 1079.4 | 1111 | 1125.4 | 1132.7 | 1136.9 | 1139.5 | – | 1142.2 | 1142.9 | 1143.4
308.15 K | – | 1108.3 | 1122.6 | – | 1134.1 | 1136.7 | 1138.2 | 1139.3 | 1140.1 | 1140.6
313.15 K | 1074.4 | 1105.6 | 1119.8 | – | – | 1133.8 | 1135.3 | 1136.5 | 1137.2 | 1137.8
318.15 K | – | 1102.8 | – | – | – | 1131 | 1132.5 | 1133.7 | 1134.4 | –
323.15 K | 1069.3 | 1100.1 | 1114.2 | 1121.5 | 1125.6 | 1128.2 | 1129.7 | 1130.9 | 1131.6 | 1132.2
